Measurements: US7442773B2, “Universal peptide-binding scaffolds and protein chips” (The Board of Trustees of The University of Illinois, priority 2004, dated 2008)

Test system: monoclonal antibody KL304
Assay: Reactivity with monoclonal antibody KL304, which recognizes empty (peptide-free) HLA-DR molecules
Assay type: binding
Conditions: KL304 specifically recognizes empty (peptide-free) HLA-DR molecules

B1: DWP-5: evolved single-chain HLA-DR1 variant (α-linker-β) from library lib-αβ, SEQ ID NOs:33 and 34 (protein)
chain: [letters of about 200 residues left out]NLGGGGSGGGRSGGGGSGDTRPRFLWQLKFECHFFNGTERVRFLERCIYNQEESVRFDSDVGEYRAVTELGRPDAEYWNSQKDLLEQRRAAADTYCRHNYGVGESFSVRRRVEPKVTVYPSKTQPLQHHNLLVCSVSGFYPGSIEVRWFRNGQEEKAGVVSTGLIQNGDWTFQTLVMLETVPRSGEVYTCQVEHPSVTSPLTVEWRARSESAQSKLESRGPFEGKPIPNPLLGLDSTRTGHHHHHH
modifications: Sequence of mutant DWP-5
With B1 the “reactivity with monoclonal antibody KL304” value was “lack of reactivity”.
